Data on five molecules can be found in PMC6751209.

Chains of the proteins cited; added tags and fusions are not shown.
UniProt Q12888: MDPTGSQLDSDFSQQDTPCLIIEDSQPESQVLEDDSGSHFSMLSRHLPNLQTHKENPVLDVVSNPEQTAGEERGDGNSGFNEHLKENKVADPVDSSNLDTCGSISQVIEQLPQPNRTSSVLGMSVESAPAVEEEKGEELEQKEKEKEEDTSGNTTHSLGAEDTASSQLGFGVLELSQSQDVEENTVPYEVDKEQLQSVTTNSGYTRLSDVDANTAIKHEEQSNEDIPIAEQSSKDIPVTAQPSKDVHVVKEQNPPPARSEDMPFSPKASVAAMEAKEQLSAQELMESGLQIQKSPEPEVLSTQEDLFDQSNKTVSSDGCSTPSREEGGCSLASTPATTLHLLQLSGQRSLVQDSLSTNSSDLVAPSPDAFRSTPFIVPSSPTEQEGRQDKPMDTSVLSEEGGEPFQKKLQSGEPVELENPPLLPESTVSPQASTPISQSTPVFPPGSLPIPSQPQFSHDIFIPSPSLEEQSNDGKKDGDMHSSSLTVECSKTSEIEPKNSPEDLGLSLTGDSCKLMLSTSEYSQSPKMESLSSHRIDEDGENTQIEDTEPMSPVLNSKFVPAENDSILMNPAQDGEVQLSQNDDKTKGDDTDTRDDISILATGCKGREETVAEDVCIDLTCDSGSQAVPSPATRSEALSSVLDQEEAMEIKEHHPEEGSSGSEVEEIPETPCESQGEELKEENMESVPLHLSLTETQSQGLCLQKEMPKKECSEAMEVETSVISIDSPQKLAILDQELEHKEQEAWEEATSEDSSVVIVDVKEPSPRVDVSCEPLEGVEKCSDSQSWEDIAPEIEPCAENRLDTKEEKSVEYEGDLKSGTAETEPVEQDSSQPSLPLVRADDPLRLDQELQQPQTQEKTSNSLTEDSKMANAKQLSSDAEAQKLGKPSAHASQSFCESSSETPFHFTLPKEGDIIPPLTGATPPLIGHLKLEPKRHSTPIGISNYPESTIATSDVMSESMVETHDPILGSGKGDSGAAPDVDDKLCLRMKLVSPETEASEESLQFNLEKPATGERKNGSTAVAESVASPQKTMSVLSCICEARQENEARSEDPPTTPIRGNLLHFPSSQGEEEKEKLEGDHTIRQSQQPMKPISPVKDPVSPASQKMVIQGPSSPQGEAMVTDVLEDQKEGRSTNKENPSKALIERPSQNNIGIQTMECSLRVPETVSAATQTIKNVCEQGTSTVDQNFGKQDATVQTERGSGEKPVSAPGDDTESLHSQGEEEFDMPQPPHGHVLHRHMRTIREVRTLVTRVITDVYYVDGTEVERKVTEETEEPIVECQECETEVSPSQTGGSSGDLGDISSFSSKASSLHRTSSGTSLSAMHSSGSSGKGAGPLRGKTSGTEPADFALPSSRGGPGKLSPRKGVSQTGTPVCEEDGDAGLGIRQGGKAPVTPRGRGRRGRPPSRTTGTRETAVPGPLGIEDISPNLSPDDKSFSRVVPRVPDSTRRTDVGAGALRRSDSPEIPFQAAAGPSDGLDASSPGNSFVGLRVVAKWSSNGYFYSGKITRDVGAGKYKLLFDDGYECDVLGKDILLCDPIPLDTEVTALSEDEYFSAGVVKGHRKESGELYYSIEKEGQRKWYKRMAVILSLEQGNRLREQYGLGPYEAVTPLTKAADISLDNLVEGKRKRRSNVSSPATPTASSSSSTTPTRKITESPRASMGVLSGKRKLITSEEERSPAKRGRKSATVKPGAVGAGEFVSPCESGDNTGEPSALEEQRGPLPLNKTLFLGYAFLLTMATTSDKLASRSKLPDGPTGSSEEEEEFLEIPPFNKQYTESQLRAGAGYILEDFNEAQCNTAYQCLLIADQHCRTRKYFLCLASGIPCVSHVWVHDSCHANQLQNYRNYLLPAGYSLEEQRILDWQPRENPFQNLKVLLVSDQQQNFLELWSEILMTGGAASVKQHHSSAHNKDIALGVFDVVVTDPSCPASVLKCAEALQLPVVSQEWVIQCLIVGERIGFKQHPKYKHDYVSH

The target of test [1] is 53BP1 as used in Supplementary Fig. 1a (UniProt Q12888). In words: co-IP; 53BP1 immunoprecipitated with full-length or deletion mutants of PP4R3β (Supplementary Fig. 1a); cells and bait not stated in the text shown; NETN lysis buffer.
In another test the target is T1, Myc-PP4R3β S840A (UniProt Q5MIZ7).
T1 sequence: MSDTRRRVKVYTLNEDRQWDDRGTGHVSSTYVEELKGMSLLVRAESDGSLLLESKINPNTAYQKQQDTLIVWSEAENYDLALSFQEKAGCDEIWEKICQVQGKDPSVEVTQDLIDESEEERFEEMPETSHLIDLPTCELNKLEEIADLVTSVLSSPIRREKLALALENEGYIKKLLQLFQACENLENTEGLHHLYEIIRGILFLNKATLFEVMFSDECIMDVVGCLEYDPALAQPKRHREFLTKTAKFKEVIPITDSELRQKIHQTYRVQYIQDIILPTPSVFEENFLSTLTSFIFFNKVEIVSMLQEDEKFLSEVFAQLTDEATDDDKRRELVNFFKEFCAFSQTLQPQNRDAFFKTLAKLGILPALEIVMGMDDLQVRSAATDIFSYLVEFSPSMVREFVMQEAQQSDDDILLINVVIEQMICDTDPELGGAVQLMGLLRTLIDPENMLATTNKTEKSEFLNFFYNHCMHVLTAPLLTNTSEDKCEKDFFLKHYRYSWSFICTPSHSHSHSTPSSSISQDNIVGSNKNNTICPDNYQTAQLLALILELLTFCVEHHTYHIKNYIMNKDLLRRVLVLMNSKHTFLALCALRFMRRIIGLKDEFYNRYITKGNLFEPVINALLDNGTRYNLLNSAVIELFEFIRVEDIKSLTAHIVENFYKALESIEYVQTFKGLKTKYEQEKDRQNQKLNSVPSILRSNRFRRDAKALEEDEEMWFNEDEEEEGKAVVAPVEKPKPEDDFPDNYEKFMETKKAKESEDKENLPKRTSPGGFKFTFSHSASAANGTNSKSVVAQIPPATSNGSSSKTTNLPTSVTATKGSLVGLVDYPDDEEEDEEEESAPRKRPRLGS
In words: co-IP; HeLa transiently transfected with Myc-PP4R3β constructs, asynchronous or prometaphase (nocodazole); whole cell extracts, MYC IP, immunoblot for endogenous PP4C; NETN buffer.

The target of a further test is T2, Myc-PP4R3β S840D (UniProt Q5MIZ7).
T2 sequence: T1 sequence with A840D
The test is described as above.

A further test deals with T3, Myc-PP4R3β S840F (UniProt Q5MIZ7).
T3 sequence: T1 sequence with A840F
The test is described as above.

In test [2] the target is Myc-PP4R3β, full length, wild type (UniProt Q5MIZ7). Described as above.
For the next test, the target named is FLAG-53BP1 (UniProt Q12888). In words: co-IP; HeLa transiently transfected with FLAG-53BP1 and Myc-PP4R3β constructs, synchronized to prometaphase (M) with nocodazole; whole cell extracts, FLAG IP, immunoblot; NETN buffer.
Test [3] has as its target CDK5, endogenous (human (endogenous in HeLa)), Q00535. Put plainly: co-IP; Endogenous CDK5 pulled down from asynchronous cells and from cells in late stages of mitosis (Supplementary Fig. 5a); immunoblot for p35/p25, FIBP, KIAA0528. Conditions: remark: other sources report otherwise.
Test [4] deals with CDK5, endogenous (human (endogenous in HeLa)) (UniProt Q00535). The test is described as above.

Numbering of substitutions follows the chain as printed. Names may count otherwise. These are yes or no findings as the source states them, for the method shown. Binding seen in cells or lysates may run through a third protein. Some entries that bind do so weakly or less than the wild type. For some assays here: Sequences can lack the tags named with a protein.

B1: Myc-PP4R3β C-terminal region, residues 721–849 (domain or fragment, UniProt Q5MIZ7 721-849)
chain: EEEEGKAVVAPVEKPKPEDDFPDNYEKFMETKKAKESEDKENLPKRTSPGGFKFTFSHSASAANGTNSKSVVAQIPPATSNGSSSKTTNLPTSVTATKGSLVGLVDYPDDEEEDEEEESSPRKRPRLGS
Consider B1, for which the binding entry in test [1] was “binds”.

B2: PP4 catalytic subunit (PP4C), endogenous (enzyme, UniProt P60510 1-307)
chain: MAEISDLDRQIEQLRRCELIKESEVKALCAKAREILVEESNVQRVDSPVTVCGDIHGQFYDLKELFRVGGDVPETNYLFMGDFVDRGFYSVETFLLLLALKVRYPDRITLIRGNHESRQITQVYGFYDECLRKYGSVTVWRYCTEIFDYLSLSAIIDGKIFCVHGGLSPSIQTLDQIRTIDRKQEVPHDGPMCDLLWSDPEDTTGWGVSPRGAGYLFGSDVVAQFNAANDIDMICRAHQLVMEGYKWHFNETVLTVWSAPNYCYRCGNVAAILELDEHLQKDFIIFEAAPQETRGIPSKKPVADYFL
For the molecule B2, the binding entry (with Myc-PP4R3β S840A; in the test with Myc-PP4R3β S840D; in the test with Myc-PP4R3β S840F; in test [2]) was “binds” throughout.

B3: Myc-PP4R3β S840D (protein, UniProt Q5MIZ7 1-849)
chain: T1 sequence with A840D
As for B3, in the test with FLAG-53BP1, the binding result is on record as “binds”.

B4: Fibroblast growth factor (acidic) intracellular binding protein (FIBP), endogenous, O43427 1-364 (protein)
chain: MTSELDIFVGNTTLIDEDVYRLWLDGYSVTDAVALRVRSGILEQTGATAAVLQSDTMDHYRTFHMLERLLHAPPKLLHQLIFQIPPSRQALLIERYYAFDEAFVREVLGKKLSKGTKKDLDDISTKTGITLKSCRRQFDNFKRVFKVVEEMRGSLVDNIQQHFLLSDRLARDYAAIVFFANNRFETGKKKLQYLSFGDFAFCAELMIQNWTLGAVGEAPTDPDSQMDDMDMDLDKEFLQDLKELKVLVADKDLLDLHKSLVCTALRGKLGVFSEMEANFKNLSRGLVNVAAKLTHNKDVRDLFVDLVEKFVEPCRSDHWPLSDVRFFLNQYSASVHSLDGFRHQALWDRYMGTLRGCLLRLYHD
On to B4, for which the binding entry in test [3] is “no binding”.

B5: KIAA0528 (C2 calcium-dependent domain containing 5), endogenous (protein, UniProt Q86YS7 1-1000)
chain: MPGKLKVKIVAGRHLPVMDRASDLTDAFVEVKFGNTTFKTDVYLKSLNPQWNSEWFKFEVDDEDLQDEPLQITVLDHDTYSANDAIGKVYIDIDPLLYSEAATVISGWFPIYDTIHGIRGEINVVVKVDLFNDLNRFRQSSCGVKFFCTTSIPKCYRAVIIHGFVEELVVNEDPEYQWIDRIRTPRASNEARQRLISLMSGELQRKIGLKVLEMRGNAVVGYLQCFDLEGESGLVVRAIGTACTLDKLSSPAAFLPACNSPSKEMKEIPFNEDPNPNTHSSGPSTPLKNQTYSFSPSKSYSRQSSSSDTDLSLTPKTGMGSGSAGKEGGPFKALLRQQTQSALEQREFPFFTLTAFPPGFLVHVGGVVSARSVKLLDRIHNPDEPETRDAWWAEIRQEIKSHAKALGCHAVVGYSESTSICEEVCILSASGTAAVLNPRFLQDGTVEGCLEQRLEENLPTRCGFCHIPYDELNMPFPAHLTYCYNCRKQKVPDVLFTTIDLPTDATVIGKGCLIQARLCRLKKKAQAEANATAISNLLPFMEYEVHTQLMNKLKLKGMNALFGLRIQITVGENMLMGLASATGVYLAALPTPGGIQIAGKTPNDGSYEQHISHMQKKINDTIAKNKELYEINPPEISEEIIGSPIPEPRQRSRLLRSQSESSDEVTELDLSHGKKDAFVLEIDDTDAMEDVHSLLTDVPPPSGFYSCNTEIMPGINNWTSEIQMFTSVRVIRLSSLNLTNQALNKNFNDLCENLLKSLYFKLRSMIPCCLCHVNFTVSLPEDELIQVTVTAVAITFDKNQALQTTKTPVEKSLQRASTDNEELLQFPLELCSDSLPSHPFPPAKAMTVEKASPVGDGNFRNRSAPPCANSTVGVVKMTPLSFIPGAKITKYLGIINMFFIRETTSLREEGGVSGFLHAFIAEVFAMVRAHVAALGGNAVVSYIMKQCVFMENPNKNQAQCLINVSGDAVVFVRESDLEVVSSQQPTTNCQSSCTEGEVTT
Take B5: the binding entry in test [4] is reported as “binds”.
